Assay results published in PubChem BioAssay AID1468 (National Center for Advancing Translational Sciences (NCATS), 2008).
“And” between values parts separate entries of the source, which are not always exact repeats. Equal values may be shown once. In all, about 280,000 compounds went through this assay and about 1,100 (0.39%) were called active. Inconclusive means that the source gave no clear call. Such entries were picked first, then a sample of the others. Calls follow the shape of the dose curve; as a rule, active = well fitted inhibition curve with a large enough effect; inconclusive = small, poorly fitted or top-dose-only effect, or effect the other way; inactive = flat fitted curve, though single readings scatter. Potencies beside an inconclusive call are fits to weak or partial responses and may not hold up.

biological target: Microtubule-associated protein tau (Homo sapiens) (UniProt P10636); test: qHTS for Inhibitors of Tau Fibril Formation, Fluorescence Polarization; conditions: K18 P301L tau heparin fibrillization, Alexa594 FP, 6 h; series mostly up to 57.7 µM; activity, negative = inhibition: at the top concentration; also: nearly all actives have a fitted effect of over 55% in size
Method in brief: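 FP of Alexa 594-tau after heparin (20 uM) induction. Substrate: human K18 P301L, 15 uM unlabeled, 0.24 uM labeled. Buffer 100 mM sodium acetate pH 7. 6 hr, 37 C.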
% is scaled to controls: 0 for no effect and ±100 for the full control effect; potency is read from the fitted curve at half-maximal effect; tags tell the direction and shape of the fitted curve.

UniProt P10636, sequence (P10636 whole entry, looked up): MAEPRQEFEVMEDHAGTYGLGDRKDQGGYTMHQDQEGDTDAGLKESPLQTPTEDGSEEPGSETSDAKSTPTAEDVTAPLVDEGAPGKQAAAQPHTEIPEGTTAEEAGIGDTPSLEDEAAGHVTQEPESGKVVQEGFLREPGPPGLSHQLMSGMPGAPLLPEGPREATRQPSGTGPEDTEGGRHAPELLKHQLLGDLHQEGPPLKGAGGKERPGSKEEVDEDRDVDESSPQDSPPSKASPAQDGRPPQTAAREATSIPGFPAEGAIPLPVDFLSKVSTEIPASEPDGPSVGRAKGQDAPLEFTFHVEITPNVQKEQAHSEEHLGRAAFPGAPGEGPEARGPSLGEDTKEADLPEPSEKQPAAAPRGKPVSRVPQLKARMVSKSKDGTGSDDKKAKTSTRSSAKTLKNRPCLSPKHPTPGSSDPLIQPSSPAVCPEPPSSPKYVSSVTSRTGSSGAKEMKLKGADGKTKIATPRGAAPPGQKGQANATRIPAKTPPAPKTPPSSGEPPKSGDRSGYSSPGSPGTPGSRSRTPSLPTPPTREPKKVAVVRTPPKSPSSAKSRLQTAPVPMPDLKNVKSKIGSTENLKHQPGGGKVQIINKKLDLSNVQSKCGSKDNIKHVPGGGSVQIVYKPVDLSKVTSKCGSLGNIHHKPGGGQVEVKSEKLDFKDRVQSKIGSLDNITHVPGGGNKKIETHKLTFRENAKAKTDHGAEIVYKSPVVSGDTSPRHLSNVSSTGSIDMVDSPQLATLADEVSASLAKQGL

Row | Compound | Potency | activity, negative = inhibition
1 | Cc1cccc(C(=O)n2c(=S)nc3ccccn32)c1 | inconclusive: 14.1 µM [inhibitor, partial curve] | 
2 | N=C1c2ccccc2CN1c1ccc(N2CCOCC2)c(S(=O)(=O)Nc2ccc(Cl)cc2)c1 | inconclusive: 39.8 µM [inhibitor, single point] | 
3 | Cc1ccc2nc3c(nc2c1C)C(O)=C3O | inconclusive: 35.5 µM [inhibitor, single point] | 
4 | COc1cccc(NC(=O)c2ccc(-c3nc(COc4ccc(C)cc4)c(C)o3)cc2)c1 | inconclusive: 14.1 µM [inhibitor, partial curve] | 
5 | COc1ccc(Cn2c(O)c(/C=N/NC(=O)c3cccnc3)c3ccccc3c2=O)cc1 |  | inactive: 9.71%
6 | O=C(Cc1ccc(Cl)c(Cl)c1)Nc1ccc2[nH]c(=O)[nH]c2c1 |  | inactive: -11.8%
7 | CCOC(=O)c1cc(-c2ccc(F)cc2)n(CCC(=O)NC2CCCCC2)c1C | inconclusive: 8.91 µM [inhibitor, single point] | 
8 | CCOC(=O)c1c(-c2ccc(C)c(C)c2)csc1NC(=O)C1CC=CCC1C(=O)O (stereo not drawn) |  | inactive: -3.39%
9 | CC(C)(C)C(=O)Cn1ncc(Cl)c(Cl)c1=O |  | inactive: 1.24%
10 | CSc1ccc(CCNC(=O)c2cc3c(-c4ccccc4F)nn(C)c3s2)cc1 | inconclusive: 12.6 µM [inhibitor, partial curve] | 
11 | CCOC(=O)c1cccc(NC(=O)c2cc3cc4ccc(C)cc4nc3s2)c1 | inconclusive: 31.6 µM [inhibitor, partial curve, poor fit] | 
12 | COc1ccccc1N(O)C1CC(=O)N(c2ccc(Br)cc2)C1=O (stereo not drawn) | inconclusive: 5.62 µM [inhibitor, full curve, poor fit] | 
13 | c1ccc2c(c1)nc(N1CCOCC1)c1ccccc12 | inconclusive: 3.98 µM [inhibitor, single point] | 
14 | COc1cccc(CNC(=O)C2CCN(S(=O)(=O)c3cccc4cccnc34)CC2)c1 | inconclusive: 0.0251 µM [inhibitor, full curve, poor fit] | 
15 | CCOC(=O)c1cc2c(=O)n3ccccc3nc2n(C)c1=NC(=O)c1cc2ccccc2o1 |  | inactive: -4.54%
16 | N#Cc1ccc(C(=O)OCC(=O)Nc2ccc(N3CCOCC3)cc2)cc1 |  | inactive: -2.2%
17 | CN(CCC#N)C(=S)NC(=O)c1ccc(S(=O)(=O)N2CCOCC2)cc1 |  | inactive: -3.34%
18 | CCCC(=O)Nc1ccc(Sc2ccc([N+](=O)[O-])cc2)cc1 | inconclusive: 39.8 µM [inhibitor, single point] | 
19 | Cc1cc(C)cc(Nc2cc(C(=O)NCc3ccccc3)c3ccccc3n2)c1 | inconclusive: 44.7 µM [inhibitor, single point] | 
20 | O=C(Nc1ccc2oc(-c3cccc(Cl)c3Cl)nc2c1)c1cccc(Br)c1 | inconclusive: 10 µM [inhibitor, single point] | 
21 | Cc1ccc(Nc2c(-c3ccc(N4CCOCC4)cc3)nc3cnccn23)cc1 | inconclusive: 39.8 µM [activator, single point] | 
22 | C=CCN1C(=O)/C(=c2\sc3nc(=O)c(Cc4ccc(OC)c(OC)c4)nn3c2=O)c2ccccc21 | inconclusive: 11.2 µM [inhibitor, partial curve] | 
23 | O=C(O)c1cccc(N/N=C/c2cc(Br)cc(Br)c2O)c1 | inconclusive: 10 µM [activator, partial curve, poor fit] | 

Row | Compound | Potency | activity, negative = inhibition
24 | N/C(=N\OC(=O)/C=C/c1ccccc1Cl)c1cccnc1 | inconclusive: 35.5 µM [inhibitor, single point] | 
25 | CCC(=O)NNC(=O)CCC(=O)Nc1cccc(Cl)c1C |  | inactive: -4.11%
26 | CC(C)CNS(=O)(=O)c1ccc(NC(=O)Cn2nc(-c3ccc(F)cc3)ccc2=O)cc1 | inconclusive: 31.6 µM [inhibitor, partial curve] | 
27 | CCc1ccccc1N1CSC2=C(C#N)C(c3ccccc3F)CC(=O)N2C1 (stereo not drawn) | inconclusive: 28.2 µM [inhibitor, partial curve] | 
28 | Cc1cccc(N(C)C(=S)Oc2ccc3ccccc3c2)c1 | inconclusive: 25.1 µM [inhibitor, partial curve] and inconclusive: 17.8 µM [inhibitor, single point] | 
29 | Cc1ccc(/C=C/C(=O)Nc2cccc(S(=O)(=O)N3CCOCC3)c2)o1 | inconclusive: 8.91 µM [inhibitor, single point] | 
30 | Cc1cc(C)c(C(=O)CSC2=NC(N)=C(C#N)C3(CCCCC3)C2C(N)=O)cc1C (stereo not drawn) | inconclusive: 39.8 µM [inhibitor, single point] | 
31 | O=C(NC(=S)N1CCCc2ccccc21)c1ccco1 |  | inactive: -1.12%
32 | N#CC1=C(N)C2=CCCC[C@H]2[C@H](c2ccccc2)C1(C#N)C#N | inconclusive: 28.2 µM [inhibitor, single point] | 
33 | O=C(CCCn1c(=O)[nH]c2ccc(Br)cc2c1=O)NCc1ccc(Cl)cc1 | inconclusive: 35.5 µM [inhibitor, single point] | 
34 | Cc1cc(=O)cc2oc3cc(N)c(-c4c(C)cc(O)cc4O)c(C)c3nc1-2 | active: 22.4 µM | 
35 | CCCNC(=O)CN1CCN(c2ncc(NC(=O)c3ccc(Cl)cc3)cc2C(=O)O)CC1 | inconclusive: 39.8 µM [inhibitor, single point] | 
36 | O=[N+]([O-])c1ccc(CN2CCSCC2)cc1 |  | inactive: 5.37%
37 | Cc1ccc(NC(=O)NCc2ccc3[nH]c(C)cc3c2)cc1 | inconclusive: 12.6 µM [activator, single point] | 
38 | C(=N\Nc1nc2ccccc2[nH]1)/c1cccs1 | active: 17.8 µM | 
39 | CCCCc1nnc(NC(=O)CN2C(=O)c3ccccc3C2=O)s1 | inconclusive: 4.47 µM [inhibitor, single point] | 
40 | COc1cccc2sc(N3CCN(C(=O)CCS(=O)(=O)c4ccc(F)cc4)CC3)nc12 |  | inactive: -2.15%
41 | Cc1ccsc1CN(C(=O)c1oc2ccccc2c1C)C1CCS(=O)(=O)C1 (stereo not drawn) |  | inactive: -1.68%
42 | COc1ccc(CN2CNc3c(c(=O)n(C)c(=O)n3C)C2)cc1 | inconclusive: 12.6 µM [inhibitor, single point] | 
43 | CS(=O)(=O)N1CCc2cc(C(=O)Nc3cccc(F)c3)ccc21 | inconclusive: 20 µM [inhibitor, single point] | 
44 | CCc1cccc(NC(=O)CCSCCC(=O)Nc2cccc(CC)c2)c1 |  | inactive: -8.82%
45 | CC1(OC(=O)C2CCCC2)C(=O)C=C2C=C(c3ccsc3)N(C3CCCCC3)C=C2C1=O (stereo not drawn) | inconclusive: 20 µM [inhibitor, partial curve] | 
46 | COc1ccc2nc(SCC(=O)Nc3ccccc3)[nH]c2c1 |  | inactive: -2.63%

Row | Compound | Potency | activity, negative = inhibition
47 | COc1cc(C(=O)Nc2ccc(-c3nnc(-c4ccco4)o3)cc2)cc(OC)c1OC | inconclusive: 4.47 µM [inhibitor, full curve, poor fit] | 
48 | COC(=O)c1c(NC(=O)/C=C/C(=O)O)sc(C)c1-c1ccc(C)c(C)c1 |  | inactive: 10.3%
49 | CCn1c(CN2CCCCC2)nc2cc(NC(=O)c3ccc([N+](=O)[O-])cc3)ccc21 |  | inactive: 3.74%
50 | NC(=O)c1oc2ccccc2c1NC(=O)c1nc2ccccc2s1 | inconclusive: 8.91 µM [inhibitor, partial curve] | 
51 | CCCCSc1nc(O)c(C2OC(=O)c3c2ccc(OC)c3OC)c(=O)n1-c1ccccc1 (stereo not drawn) | inconclusive: 20 µM [inhibitor, single point] | 
52 | Cc1ccc(-n2nnc(-c3nsc(NC(=O)c4ccc(C)c(C)c4)n3)c2C)cc1 | inconclusive: 10 µM [inhibitor, partial curve] | 
53 | Cc1ccc(/C=C2/C(=O)c3ccc(C(=O)O)cc3C2=O)o1 | inconclusive: 39.8 µM [inhibitor, single point] | 
54 | Cc1cccc(-c2cc(=O)c3cc(Br)ccc3o2)c1 |  | inactive: 2.18%
55 | O=S(=O)(/N=C(/Nc1cccc2ccccc12)c1ccccc1)c1cccs1 |  | inactive: -6.55%
56 | Cc1ccc2[nH]c(CSc3nnc(NC(=O)COc4ccccc4Cl)s3)cc(=O)c2c1 | inconclusive: 14.1 µM [inhibitor, partial curve] | 
57 | O=C(CNC1CCCCC1)NN=C(c1ccccc1)c1ccccc1 |  | inactive: -1.45%
58 | CN(Cc1ccccc1)C(=O)Cn1c(=O)c2cccn2c2ccc(F)cc21 | inconclusive: 8.91 µM [inhibitor, single point] | 
59 | Cc1nc2c3cc(F)ccc3n(Cc3ccccc3F)c2s1 | inconclusive: 17.8 µM [inhibitor, partial curve] | 
60 | CN(Cc1ccccc1)c1ccc(C(CC(N)=O)NC(=O)Cc2ccc(Br)cc2)cc1[N+](=O)[O-] (stereo not drawn) | inconclusive: 25.1 µM [inhibitor, single point] | 
61 | Cc1nc(CNS(=O)(=O)c2cccnc2)cs1 | inconclusive: 25.1 µM [activator, single point] | 
62 | CCOC(=O)c1cnc2c(cnn2C)c1Oc1ccc(OC)cc1 | inconclusive: 3.16 µM [inhibitor, full curve, poor fit] | 
63 | O=C(Nc1ccc2c(c1)C(=O)N(c1ccccc1)C2=O)c1cccs1 | inconclusive: 12.6 µM [inhibitor, partial curve] | 
64 | O=C(COc1ccccc1)Nc1sc2c(c1C(=O)Nc1ccccc1)CCCCC2 | inconclusive: 39.8 µM [inhibitor, single point] | 
65 | CCOC(=O)C1CCCN(C(=O)Cn2ncc3c4ccccc4n(Cc4ccc(F)cc4)c3c2=O)C1 (stereo not drawn) |  | inactive: 1.98%
66 | COc1ccc(OCCn2cc(C(=O)c3ccco3)c3ccccc32)cc1 | inconclusive: 1.41 µM [inhibitor, full curve, poor fit] | 
67 | OCC1OC([S-])[C@H](O)C(O)C1O.[Au+] (stereo partly drawn) | inconclusive: 31.6 µM [inhibitor, single point] | 
68 | Cc1nn(C)cc1/C=N/NC(=O)C1(O)c2ccccc2-c2ccccc21 |  | inactive: 2.77%
